Source: PubChem BioAssay AID1671193 (National Center for Advancing Translational Sciences (NCATS), 2021)
Values joined by “and” are separate entries in the source; they are usually repeats but may differ in a detail not shown here. Equal entries are not always repeated. Out of some 150,000 compounds screened, about 180 (0.12%) were called active. Inconclusive means that the source gave no clear call. Such entries were picked first, then a sample of the others. The call rests on the fitted dose curve; in most records, active means well fitted cell-killing curve with a large enough effect; inconclusive means small, poorly fitted or top-dose-only effect, or effect the other way; inactive means flat fitted curve, though single readings scatter. Potencies of inconclusive entries are doubtful fits and often do not repeat.

Experiment: GF-AFC viability counterscreen for inhibitors of alpha-synuclein gene (SNCA) expression; further: nearly all actives have a fitted effect of over 30% in size;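 on activity change, negative = cytotoxicity: 0% = DMSO-treated cells and -100% = medium-only wells without cells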
Conditions: HEK-293-SNCA-luc viability, GF-AFC fluorescence, 24 h; activity change, negative = cytotoxicity: at 57.1 µM (top of the series) unless noted
In short: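 Cytotoxicity counterscreen: after 24 h compound treatment of genome-edited SNCA-luciferase HEK-293 cells, live-cell protease substrate GF-AFC read by fluorescence after 30 min; activity scaled between DMSO (0%) and medium-only (-100%), curves Hill-fitted.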
Potency means the concentration at half of the fitted maximal effect; tags describe the fitted curve by direction and shape.

Compound | Potency | activity change, negative = cytotoxicity
O=C(CSC1=Nc2ccccc2C2=NC(Cc3ccccc3)C(=O)N12)Nc1ccccc1 (stereo not drawn) | inconclusive: 20 µM [cytotoxic, partial curve, poor fit] | 
Cc1ccc(OCCSc2nc3ccccc3n2CC(=O)N2CCCCC2)c(C)c1 | active: 14.1 µM | 
CC1=C[C@@H](CNC(=O)CC(C)(C)CC(=O)O)[C@H](C(C)C)C[C@H]1Cc1nc2ccc(F)cc2[nH]1 | inactive | 
COc1ccccc1C(=O)NC1CCN(c2ccnc3ccnn23)CC1 | inactive | 
CC1Oc2ccc(NC(=O)C3CC3)cc2CN(Cc2cc(F)cc(F)c2)C1=O (stereo not drawn) | inactive | 
COC(=O)[C@@H]1Cc2ncn(Cc3ccc(Cl)cc3)c2CN1S(C)(=O)=O | inconclusive: 25.1 µM [cytotoxic, partial curve, poor fit] | 
FC(F)Oc1ccccc1CN(CC1CCN(C2CCCC2)CC1)CC1CCCO1 (stereo not drawn) | inconclusive: 15.8 µM [cytotoxic, single point] | 
COc1ccc(C(=O)N[C@@H]2CCC[C@@H]2C(=O)N2CCCC2)cc1 | inconclusive: 2 µM [cytotoxic, full curve, poor fit] | 
O=C(NCc1ccc(F)cc1)C1CCN(C(=O)c2ccc(-c3cncnc3)cc2)CC1 | inactive | 
CCOc1ccc(NC(=O)CCNc2c(C)nc3cnccn23)cc1 | inactive | 
C=C[C@@]1(C)C=C2C(=O)C(O)=C3[C@](C)(C(=O)O)CC[C@@H]4C[C@]34[C@]2(O)C(=O)C1 | active: 18.5 µM | 
COCCNC(=O)CCCN1C(=O)COc2ccc(C(=O)COc3c(C)ccc(C)c3C)cc21 | inconclusive: 3.55 µM [cytotoxic, full curve, poor fit] | 
CC(C)C[C@@H]1N[C@H](C(=O)NCCN2CCOCC2)Cc2cn(Cc3ccccn3)c3cccc1c23 | inconclusive: 28.2 µM [cytotoxic, single point] | 
Clc1ccc(Nc2ncc(-c3cccnc3)c3c2OCC3)cc1 | inactive | 
CCCNCc1ccc(-c2ccccc2)o1 | inactive | 
CC1=C[C@@H](CNS(C)(=O)=O)[C@H](C(C)C)C[C@H]1Cc1nc2ccc(Cl)cc2[nH]1 | inconclusive: 25.1 µM [cytotoxic, partial curve, poor fit] | 
COc1ccc(-c2cc(N3CCCC(NC(=O)C4CCCC4)C3)n[nH]2)cc1 (stereo not drawn) | inconclusive: 7.94 µM [cytotoxic, full curve, poor fit] | 
CCOc1ccc(NC(=O)c2c(NC(=O)c3ccccc3F)sc3c2CCC3)cc1 | inconclusive: 0.398 µM [rising, full curve, poor fit] | 
Cn1cccc1-c1noc(C2CCN(C(=O)CCc3ccccc3)CC2)n1 | inactive | 
COc1ccc(-c2nc3cnc(N4CCN(C)CC4)nc3n(C3CC3)c2=O)cc1 | inconclusive: 22.4 µM [rising, partial curve] | 

Compound | Potency | activity change, negative = cytotoxicity
CCOC(=O)CN1C(=O)CCN(C(=O)NC2CCCC2)CC(OC)c2ccccc21 (stereo not drawn) | inconclusive: 2.82 µM [rising, single point] | 
COc1cccc(Cn2c(SCC(=O)N(C)c3ccccc3)nc3ccccc32)c1 | inconclusive: 11.2 µM [cytotoxic, partial curve, poor fit] | 
CCOc1cc(=O)n2c(c1C(=O)Nc1ccccc1Cl)CCCC2 | inconclusive: 7.08 µM [cytotoxic, partial curve, poor fit] | 
COc1ccc2ccc(OCc3nc(C(=O)N(C)Cc4cc(C)no4)co3)cc2c1 | inconclusive: 28.2 µM [cytotoxic, single point] | 
CCc1cccc2c(C(CC(=O)N3CCc4ccccc4C3)c3cccc4c3OCO4)c[nH]c12 (stereo not drawn) | inconclusive: 4.47 µM [cytotoxic, single point] | 
O=C(NC1CCCN(c2cc(-c3ccc(Cl)cc3)[nH]n2)C1)c1ccc2ncccc2c1 (stereo not drawn) | inconclusive: 12.6 µM [cytotoxic, partial curve, poor fit] | 
COc1cccc([S+](=O)([O-])N2CCn3c(nn(-c4ccc(Cl)cc4)c3=O)C2)c1 |  | inconclusive: -33.8% [cytotoxic]
CCOc1ccccc1NC(=O)CN1C(=O)COc2ccc(S(=O)(=O)N3CCCCC3)cc21 | inconclusive: 10 µM [cytotoxic, partial curve] | 
O=C(N[C@@H]1CN(Cc2ccccc2F)C[C@H]1CO)c1ccccc1 | inconclusive: 39.8 µM [cytotoxic, single point] | 
CCCCN(C)CC(O)Cn1cc(/C=C/C(=O)c2ccc(C)cc2)c2ccccc21 (stereo not drawn) | inconclusive: 39.8 µM [cytotoxic, single point] | 
CC(C)c1ccc(NC(=O)Nc2csc3c2CCCC3)cc1 | inconclusive: 39.8 µM [cytotoxic, single point] | 
CCCCCC(=O)N1CCC(O)(c2csc(CN3CCc4ccccc4C3)n2)CC1 | inconclusive: 28.2 µM [cytotoxic, partial curve, poor fit] | 
CS(=O)(=O)Nc1cccc(-c2nc(Nc3ccc(F)cc3)c3ccccc3n2)c1 | inconclusive: 15.8 µM [cytotoxic, single point] | 
CNC(=O)c1cc(-c2ccccc2F)cc2c1OCCN2Cc1cccnc1 | inconclusive: 25.1 µM [cytotoxic, partial curve, poor fit] | 
O=c1oc2c(CN3CCCC3)c(O)ccc2cc1-c1ccccc1 | inconclusive: 15.8 µM [rising, partial curve, poor fit] | 
C[C@H](NC(c1cccc(C[P+](=O)O)c1)[C@H](C)O)c1ccc(Cl)c(Cl)c1 (stereo partly drawn) | inconclusive: 2.99 µM [rising, partial curve, poor fit] | 
CC(C)S(=O)(=O)c1oc(-c2cccs2)nc1S(=O)(=O)c1ccc(F)cc1 | inconclusive: 15.8 µM [cytotoxic, partial curve, poor fit] | 
C[C@H](Oc1cc(-n2cnc3ccc(CN4CCN(C)CC4)cc32)sc1C(N)=O)c1ccccc1C(F)(F)F | inconclusive: 13.4 µM [cytotoxic, partial curve, poor fit] | 
Cc1noc(C)c1-c1cc2c(cc(C)n2CCN(C)C)c(-c2cccnc2)n1 | inactive | 
Cc1c(CC(=O)NCCc2ccccc2F)c(=O)oc2cc(O)c(Cl)cc12 | inconclusive: 28.2 µM [rising, partial curve] | 

Compound | Potency | activity change, negative = cytotoxicity
CC1=C[C@@H](CNC(=O)CN(C)C)[C@H](C(C)C)C[C@H]1Cc1nc2ccc(C)cc2[nH]1 | inconclusive: 39.8 µM [cytotoxic, single point] | 
C[C@@H]1O[C@@H](O[C@H]2[C@H](OC(=O)[C@]34CCC(C)(C)C[C@H]3C3=CCC5[C@@]6(C)C[C@H](O)[C@H](O[C@@H]7O[C@H](CO)[C@@H](O)[C@H](O)[C@H]7O)[C@](CO)(C(=O)O)C6CC[C@@]5(C)[C@]3(C)C[C@H]4O)OC[C@H](O)[C@@H]2O)[C@H](O)[C@H](O)[C@H]1O[C@@H]1OC[C@@H](O)[C@H](O[C@@H]2OC[C@](O)(CO)[C@H]2O)[C@H]1O (stereo partly drawn) | inconclusive: 3.57 µM [cytotoxic, single point] | 
O=c1c(-c2ccccc2)nc2cnc(N3CCNCC3)nc2n1-c1ccccc1 | inconclusive: 22.4 µM [rising, partial curve] | 
CC1=C[C@@H](CNC(=O)Cn2cnnn2)[C@H](C(C)C)C[C@H]1Cc1nc2ccccc2n1C | inconclusive: 35.5 µM [cytotoxic, single point] | 
O=C(C[C@@H]1CCNC[C@@H]1Cc1cc(CSc2ccccc2)on1)NC1CCCCC1 | inactive | 
CC(C)N1C[C@H](O)C[C@H]1c1nnc2n1CCN(C(=O)c1cnccn1)CC2 | inactive | 
O=C(Cn1c(=O)n(CCCS(=O)(=O)C2CCCCC2)c(=O)c2ccccc21)Nc1ccc(F)c(Cl)c1 | inconclusive: 7.08 µM [cytotoxic, single point] | 
CCc1nc2ccc(C(=O)NCc3cccc(Br)c3)cc2nc1CC | inconclusive: 28.2 µM [cytotoxic, single point] | 
Cn1cccc1-c1noc(C2CCN(C(=O)NC(C)(C)C)CC2)n1 | inactive | 
COCCn1c(=O)c(-c2cccs2)nc2cnc(N3CCNCC3)nc21 | inconclusive: 7.94 µM [rising, partial curve] | 
CCOc1ccc(C(=O)N2CCCN(c3cc(-c4ccc(Cl)cc4)[nH]n3)CC2)cc1 | inconclusive: 22.4 µM [cytotoxic, single point] | 
COC(=O)CN1C(C(=O)c2ccccc2)=C(OC(=O)c2ccc(C)cc2)c2ccccc2S1(=O)=O | inconclusive: 28.2 µM [cytotoxic, single point] | 
CCOc1ccccc1CN1CCC2(CCN(C(=O)Nc3ccc(Cl)cc3)CC2)Oc2ccccc21 | inactive | 
CC(C)C[C@H](NC(=O)[C@H](Cc1ccccc1)NC(=O)c1cnccn1)B(O)O | inconclusive: 60.7 nM [cytotoxic, full curve] and inconclusive: 37.7 nM [cytotoxic, full curve, poor fit] | 
CC1=C[C@@H](CNCc2ccccn2)[C@H](C(C)C)C[C@H]1Cc1nnc(-c2ccccc2)o1 | inconclusive: 28.2 µM [cytotoxic, single point] | 
CCN1c2cc(C(=O)Nc3ccc(-n4ccnc4)cc3)ccc2C(=O)N2CCCCCC21 (stereo not drawn) | inconclusive: 3.16 µM [rising, single point] | 
COc1cc(C2NC(=O)c3c(sc4c3CCN(C)C4)N2)cc(Br)c1OC(=O)c1ccc(C)cc1 (stereo not drawn) | inconclusive: 15.8 µM [rising, partial curve, poor fit] | 
COCCn1c(=O)c(-c2cn(C)c3ccccc23)nc2cnc(N3CCNCC3)nc21 | inconclusive: 10 µM [rising, partial curve] | 
